Experimental data as given in PubChem BioAssay AID504339 (National Center for Advancing Translational Sciences (NCATS), 2011).
About 17,000 (4.4%) of roughly 390,000 compounds were called active. This list was built around the results that the source calls inconclusive (neither active nor inactive); the mix of calls is not that of the screen. Calls come from the whole dose curve; as a rule, active = well fitted inhibition curve with a large enough effect; inconclusive = small, poorly fitted or top-dose-only effect; inactive = no such curve, though single readings can be large or run the other way. Potencies beside an inconclusive call are fits to weak or partial responses and may not hold up.

molecular target: Lysine-specific demethylase 4A (Homo sapiens) (UniProt O75164); assay: qHTS Assay for Inhibitors of JMJD2A-Tudor Domain; settings: AlphaScreen JMJD2A-Tudor / H3K4me3 peptide binding; activity change, negative = inhibition: at 114 µM (top of the series); note: nearly all actives have a fitted effect of over 50% in size
Sequence of UniProt O75164 (O75164 whole entry, looked up, the tested form may be a part): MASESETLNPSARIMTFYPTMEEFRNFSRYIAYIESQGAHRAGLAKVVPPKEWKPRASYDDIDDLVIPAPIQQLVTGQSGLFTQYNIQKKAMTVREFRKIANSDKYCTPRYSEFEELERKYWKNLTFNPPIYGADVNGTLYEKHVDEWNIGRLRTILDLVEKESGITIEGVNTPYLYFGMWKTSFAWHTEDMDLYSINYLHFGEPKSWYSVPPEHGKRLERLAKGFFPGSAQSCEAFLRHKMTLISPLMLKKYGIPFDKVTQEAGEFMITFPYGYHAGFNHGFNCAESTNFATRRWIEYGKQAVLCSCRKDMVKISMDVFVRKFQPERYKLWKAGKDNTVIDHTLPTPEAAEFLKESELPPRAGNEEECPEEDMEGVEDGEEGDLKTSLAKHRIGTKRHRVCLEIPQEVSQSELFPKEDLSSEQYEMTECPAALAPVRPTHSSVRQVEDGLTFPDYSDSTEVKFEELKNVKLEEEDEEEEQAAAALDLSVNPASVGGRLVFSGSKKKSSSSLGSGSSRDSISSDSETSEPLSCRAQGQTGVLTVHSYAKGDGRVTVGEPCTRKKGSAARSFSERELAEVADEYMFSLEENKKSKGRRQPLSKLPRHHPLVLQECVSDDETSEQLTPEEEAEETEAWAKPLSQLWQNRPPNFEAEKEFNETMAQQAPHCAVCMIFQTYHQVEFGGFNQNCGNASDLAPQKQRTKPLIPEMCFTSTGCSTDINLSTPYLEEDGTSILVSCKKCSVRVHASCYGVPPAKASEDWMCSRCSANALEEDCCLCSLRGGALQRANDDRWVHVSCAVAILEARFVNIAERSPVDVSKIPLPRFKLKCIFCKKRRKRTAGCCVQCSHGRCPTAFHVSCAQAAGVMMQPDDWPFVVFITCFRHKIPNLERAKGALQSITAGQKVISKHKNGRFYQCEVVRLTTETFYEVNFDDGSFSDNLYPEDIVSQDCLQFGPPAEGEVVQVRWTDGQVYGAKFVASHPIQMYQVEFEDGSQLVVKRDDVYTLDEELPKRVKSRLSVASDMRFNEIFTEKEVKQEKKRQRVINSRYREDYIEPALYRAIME
% is set by controls: 0 for no effect and ±100 for the full control effect; potency is the fitted concentration of half-maximal effect; tags give direction and shape of the fitted curve.

Question: Which “activity change, negative = inhibition” value does the source give for `COc1cccc(NC(=O)CSc2nc3cc(OC)c(OC)cc3c3nc(-c4ccccc4)nn23)c1` here?
Answer: inactive: -11.7%

Question: `CCN(CC)S(=O)(=O)c1ccc(C(=O)OCn2nnc3ccccc3c2=O)cc1` was tested. Which “activity change, negative = inhibition” value did it give?
Answer: inactive: -21.3%

Question: With `N=C(N)SCc1ncccc1O` as the compound, how does the Potency read?
Answer: inconclusive: 56.2 µM [inhibitor, partial curve]

Question: For `Cc1ccc(-c2nnc(N3CCN(C(=O)COc4ccccc4)CC3)c3ccccc23)cc1`, which Potency is on record?
Answer: inconclusive: 39.8 µM [inhibitor, partial curve]

Question: `Cc1ccc(NC(=O)/C(=C\c2ccco2)NC(=O)c2ccco2)cc1` was tested. Which Potency did it give?
Answer: inconclusive: 3.55 µM [inhibitor, partial curve, poor fit]

Question: How did the Potency turn out when `COC(=O)c1ccccc1NC(=O)c1ccc2nccnc2c1` was run?
Answer: inconclusive: 56.2 µM [inhibitor, partial curve]

Question: `COc1ccc(S(=O)(=O)N2CCOCC2)cc1NC(=O)COC(=O)C1CC2CCCC(C1)C2=O` (configuration not stated) was tested. Which “activity change, negative = inhibition” value did it give?
Answer: inactive: -12.1%

Question: With `COc1cc2nc(C3CCC3)n(NC(=O)COc3ccccc3)c(=O)c2cc1OC` as the compound, how does the Potency read?
Answer: inconclusive: 17.8 µM [inhibitor, full curve]

Question: `COc1ccc2c(c1)O/C(=C\c1sccc1C)C2=O` was tested. Which “activity change, negative = inhibition” value did it give?
Answer: inactive: -19%

Question: How did the Potency turn out when `CN(Cc1c(C(=O)N/N=C/c2cccs2)nnn1-c1nonc1N)c1ccccc1` was run?
Answer: inconclusive: 50.1 µM [inhibitor, partial curve]

Question: Which Potency does the source give for `COC(=O)CCC(=O)OC1(C)C(=O)C2=COC(c3ccc(OC)cc3)=CC2=C(Br)C1=O` (configuration not stated) here?
Answer: active: 31.6 µM

Question: For `O=C(c1ccc(-c2ccccc2Cl)o1)N1CCN(c2ccccc2O)CC1`, which Potency is on record?
Answer: inconclusive: 25.1 µM [inhibitor, partial curve]

Question: With `COc1ccc(CCN2CC(C(=O)NCc3ccco3)CC2=O)cc1OC` (configuration not stated) as the compound, how does the Potency read?
Answer: inconclusive: 39.8 µM [inhibitor, partial curve]

Question: `O=[N+]([O-])c1ccccc1/C=N\N1CCN(Cc2ccccc2Cl)CC1` was tested. Which Potency did it give?
Answer: active: 35.5 µM

Question: `O=C(CSc1nnc(CCCN2C(=O)c3cccc4cccc(c34)C2=O)n1-c1ccccc1)N1CCCCC1` was tested. Which Potency did it give?
Answer: inconclusive: 89.1 µM [inhibitor, partial curve]

Question: Which Potency does the source give for `CCOc1ccc(C(=O)N/N=C/c2ccc(-c3ccc(S(=O)(=O)Nc4ncccn4)cc3)o2)cc1` here?
Answer: active: 89.1 µM

Question: Which Potency does the source give for `O=C(CC12CC3CC(CC(C3)C1)C2)N1CCN(S(=O)(=O)c2cccs2)CC1` here?
Answer: inconclusive: 89.1 µM [inhibitor, single point]

Question: `O=C(O)CP(=O)(O)O` was tested. Which Potency did it give?
Answer: inconclusive: 89.1 µM [inhibitor, single point]

Question: With `Cc1ccc(C)n1N1C(=O)/C(=C\c2ccc(Cl)cc2)SC1=S` as the compound, how does the Potency read?
Answer: active: 39.8 µM

Question: With `COC(=O)c1nc(N2CCN(S(=O)(=O)c3ccc(C)cc3)CC2)c2ccccc2n1` as the compound, how does the “activity change, negative = inhibition” value read?
Answer: inactive: -21.8%

Question: For `Cc1cccc(-n2ccnc2SCC(=O)Nc2ccc(F)cc2F)c1C`, which Potency is on record?
Answer: inconclusive: 56.2 µM [inhibitor, partial curve, poor fit]

Question: Which Potency does the source give for `CNc1nc(N(C)C)nc(N(C)C)n1` here?
Answer: inconclusive: 35.5 µM [inhibitor, full curve]

Question: `Cc1ccc(Nc2nc(C)cs2)cc1` was tested. Which Potency did it give?
Answer: inconclusive: 79.4 µM [inhibitor, partial curve]

Question: `O/N=C1\CCCc2ccc3ccccc3c21` was tested. Which Potency did it give?
Answer: inconclusive: 79.4 µM [inhibitor, single point]

Question: With `COc1ccc(-n2ccc(=O)c(C(=O)Nc3ccc(S(=O)(=O)Nc4nccs4)cc3)n2)cc1` as the compound, how does the Potency read?
Answer: active: 56.2 µM

Question: With `O=C(COc1ccc(Br)cc1)NNC(=S)NC(=O)c1ccccc1[N+](=O)[O-]` as the compound, how does the “activity change, negative = inhibition” value read?
Answer: inactive: -28.1%

Question: `Cc1ccc(C)c2c1cc(C)c1nnc(SCC(=O)c3cccs3)n12` was tested. Which Potency did it give?
Answer: inconclusive: 70.8 µM [inhibitor, single point]

Question: `CCS(=O)(=O)c1ncc(Cl)c(C(=O)Nc2ccc(C)cc2)n1` was tested. Which “activity change, negative = inhibition” value did it give?
Answer: inactive: -7.53%

Question: `Nc1ccc2nc(-c3cccc(-c4nc5ccc(N)cc5[nH]4)n3)[nH]c2c1` was tested. Which Potency did it give?
Answer: active: 44.7 µM

Question: For `COc1cccc(/C=N/NC(=O)CNC(=O)c2ccco2)c1O`, which “activity change, negative = inhibition” value is on record?
Answer: inactive: -16.5%

Question: With `COc1cccc(N2CCN(c3ccc4nnc(CCC(=O)Nc5ccccn5)n4n3)CC2)c1` as the compound, how does the “activity change, negative = inhibition” value read?
Answer: inactive: -35.9%

Question: Which Potency does the source give for `COc1cccc(/C=C2\Oc3cc(OCC(=O)N4Cc5ccccc5C[C@H]4C(=O)O)ccc3C2=O)c1` here?
Answer: inconclusive: 50.1 µM [inhibitor, partial curve]

Question: For `COc1ccc(Cn2c(=O)c3cccnc3n(CC(=O)Nc3ccc(C)c(F)c3)c2=O)cc1`, which “activity change, negative = inhibition” value is on record?
Answer: inactive: -5.82%

Question: Which Potency does the source give for `Cn1ccc2cc3c(cc21)CCN3C(=O)Nc1cccnc1` here?
Answer: active: 79.4 µM

Question: For `O=C(c1ccc(CS(=O)(=O)c2ccccc2)o1)N1CCN(c2ccccc2)CC1`, which Potency is on record?
Answer: active: 56.2 µM

Question: For `Cc1ccc(CNC(=O)CSc2nc3[nH]ncc3c(=O)[nH]2)cc1`, which Potency is on record?
Answer: inconclusive: 89.1 µM [inhibitor, single point]

Question: With `CC(=O)Oc1ccc(C(=O)[C@H]2[C@H]3C(=O)N(c4ccc(C)cc4C)C(=O)[C@H]3[C@@H]3C=CC=NN32)cc1` as the compound, how does the Potency read?
Answer: inconclusive: 44.7 µM [inhibitor, partial curve]

Question: Which Potency does the source give for `CCCS(=O)(=O)N1CCN(Cc2ccccc2C(F)(F)F)CC1` here?
Answer: active: 20 µM

Question: `CCn1c(CCNC(=O)c2ccc(C)cc2)n[nH]c1=S` was tested. Which Potency did it give?
Answer: active: 6.31 µM

Question: For `FC1(F)Oc2ccc(-c3ccc4ncnc(NCc5cccs5)c4c3)cc2O1`, which Potency is on record?
Answer: inconclusive: 89.1 µM [inhibitor, single point]

Question: `O=[N+]([O-])c1ccc(NN=Cc2cc(Br)ccc2O)nc1` was tested. Which Potency did it give?
Answer: inconclusive: 63.1 µM [inhibitor, partial curve]

Question: `COc1c(O)cccc1/C=N/NC(=O)Cn1ccnc1C` was tested. Which Potency did it give?
Answer: inconclusive: 79.4 µM [inhibitor, single point]

Question: With `CON(c1nc(Cl)nc(N(C)C)n1)S(=O)(=O)c1ccc(C)cc1` as the compound, how does the Potency read?
Answer: inconclusive: 20 µM [inhibitor, full curve]

Question: How did the “activity change, negative = inhibition” value turn out when `CCOC(=O)COc1c(Cl)cc(C2NC(=S)NC(c3ccccc3)=C2C(C)=O)cc1OC` (configuration not stated) was run?
Answer: inactive: -35.3%

Question: Which Potency does the source give for `CCOc1ccccc1OCCN1CCCC1` here?
Answer: active: 20 µM

Question: For `C=CCn1c(-c2ccccc2)n[nH]c1=S`, which Potency is on record?
Answer: inconclusive: 3.98 µM [inhibitor, single point]

Question: With `CCn1cnc2cc(NCc3ccc(Br)cc3)ccc21` as the compound, how does the Potency read?
Answer: active: 14.1 µM
